From the supplement of paper PMC9446081 come the findings set out here.

Structures are written as SMILES. The campaign covered roughly 39,000 compounds. About 220 (0.56%) showed activity. The list shows a part of the results.
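Further: static incubation at 37 °C against the wild-type strain, values averaged over two biological replicates.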

For this assay, the system named is Escherichia coli K-12 BW25113. Nature of the assay: relative growth (OD600 normalised to plate interquartile mean) (fraction); higher = less growth inhibition, active = 0.2 or less. The note with it: 50 µM; LB; incubation time: overnight (16-24 h).
On to `C[C@H]1CN([C@@H](C)CO)C(=O)Cc2cc(NC(=O)Nc3ccc(F)cc3)ccc2O[C@H]1CN(C)Cc1ccc(C(F)(F)F)cc1`, for which the relative growth is inactive: 1.02. As to `C[C@H]1CCC2=C(CCC[C@@]2(C)C(=O)O)[C@@]1(C)CCc1ccoc1`, the relative growth is inactive: 0.951. `CCS(=O)(=O)NCC[C@H]1CC[C@@H](NS(=O)(=O)c2ccccc2C)[C@H](CO)O1`: the relative growth is inactive: 0.97.

For the compound `CNC(=O)C[C@@H]1CC[C@@H]2[C@H](COC[C@@H](O)CN2C(=O)c2ccccn2)O1`, the relative growth was inactive: 0.997. For the compound `C[C@H]1CN([C@@H](C)CO)C(=O)Cc2cc(NC(=O)C3CC3)ccc2O[C@H]1CN(C)C(=O)Nc1ccccc1`, the relative growth was inactive: 0.977. The value for `C[C@@H]1CN([C@@H](C)CO)C(=O)c2ccccc2-c2ccccc2CO[C@H]1CN(C)Cc1ccccc1C(F)(F)F` was inactive: 1.06; that for `C[C@H](CO)N1C[C@H](C)[C@@H](CN(C)Cc2ccncc2)Oc2c(NC(=O)c3cnccn3)cccc2C1=O` was inactive: 0.981; that for `C[C@H]1CCCCO[C@H](CN(C)C(=O)CCC(F)(F)F)[C@@H](C)CN([C@@H](C)CO)C(=O)c2cc(NC(=O)Nc3ccccc3)ccc2O1` was inactive: 0.997. In the case of `CCOc1ccc(NC(C)=O)cc1`, the relative growth is inactive: 1.14. On to `CCCN(C)C[C@@H]1Oc2cc(C#Cc3ccc(OC)cc3)ccc2S(=O)(=O)N([C@H](C)CO)C[C@@H]1C`, for which the relative growth was inactive: 1.02. Consider `CO[C@H]1CN(C)C(=O)c2cc(NC(=O)CC(F)(F)F)ccc2OC[C@H](C)N(S(=O)(=O)c2cn(C)cn2)C[C@@H]1C`, for which the relative growth was inactive: 0.985. The value for `COc1ccc(S(=O)(=O)N(C)C[C@H]2Oc3ccc(NC(=O)c4ccncc4)cc3CC(=O)N([C@H](C)CO)C[C@@H]2C)cc1` was inactive: 1.02; that for `C[C@@H]1CN([C@H](C)CO)C(=O)c2cc(NC(=O)Cc3ccccc3)ccc2O[C@@H]1CN(C)Cc1ccc(C(F)(F)F)cc1` was inactive: 1.02. Turning to `C[C@@H]1CCCCO[C@@H](CN(C)C(=O)Nc2ccc3c(c2)OCO3)[C@H](C)CN([C@H](C)CO)C(=O)c2cc(NC(=O)c3ccncc3)ccc2O1`, the relative growth is inactive: 1. The value for `CCCC#Cc1ccc2c(c1)O[C@@H](CN(C)S(=O)(=O)c1cccc(F)c1)[C@H](C)CN([C@@H](C)CO)S2(=O)=O` was inactive: 0.92. With `COc1ccc(C=CC(=O)c2ccc(O)cc2O)cc1`, the relative growth is inactive: 0.802.

As for `CS(=O)(=O)N1C[C@@H]2OCC[C@@H]2[C@H](C(=O)NCc2cccnc2)C1`, the relative growth is inactive: 1.

In the case of `Nc1ncn([C@@H]2C[C@H](O)[C@@H](CO)O2)c(=O)n1`, the relative growth was inactive: 0.907. The value for `C[C@@H]1CN([C@H](C)CO)C(=O)c2cc(NS(=O)(=O)c3ccccc3)ccc2O[C@H]1CN(C)S(=O)(=O)c1ccc(F)cc1` was inactive: 1. For the compound `C[C@@H]1CN([C@@H](C)CO)C(=O)Cc2cc(NC(=O)Cc3cn(C)c4ccccc34)ccc2O[C@@H]1CN(C)C(=O)Nc1ccc(C(F)(F)F)cc1`, the relative growth is inactive: 1.

For the compound `CC1(C)N=C(N)N=C(N)N1c1ccccc1`, the relative growth is inactive: 0.986. For `Cc1noc(C)c1S(=O)(=O)N(C)C[C@H]1OCCCC[C@@H](C)Oc2ccc(NC(=O)Nc3ccc(C(F)(F)F)cc3)cc2C(=O)N([C@@H](C)CO)C[C@H]1C`, the relative growth is inactive: 0.975.

Regarding `C[C@H]1CN([C@@H](C)CO)C(=O)c2cc(NS(=O)(=O)c3cccs3)ccc2O[C@@H]1CN(C)S(C)(=O)=O`, the relative growth is inactive: 0.981. On to `C[C@H](CO)N1C[C@H](C)[C@H](CN(C)S(=O)(=O)c2cccc(F)c2)Oc2ncc(C#CC3CC3)cc2C1=O`, for which the relative growth was inactive: 1. The figure for `Cc1noc(C)c1NC(=O)Nc1ccc2c(c1)C(=O)N([C@@H](C)CO)C[C@H](C)[C@@H](CN(C)CC1CCCCC1)OCCCC[C@H](C)O2` is inactive: 1.01; for `CO[C@H]1CN(C)C(=O)c2ccc(NS(=O)(=O)c3cn(C)cn3)cc2OC[C@H](C)N(Cc2cccc(F)c2)C[C@H]1C` it is inactive: 0.972.

`Cc1ccc(S(=O)(=O)N(C)C[C@@H]2Oc3ccc(NC(=O)CCCN(C)C)cc3C(=O)N([C@@H](C)CO)C[C@H]2C)cc1`: the relative growth is inactive: 1.

Regarding `C[C@H](CO)N1C[C@H](C)[C@H](CN(C)Cc2ccncc2)Oc2ccc(NC(=O)CCCN(C)C)cc2C1=O`, the relative growth was inactive: 0.993. The figure for `COc1ccc(CN(C)C[C@H]2OCCCC[C@H](C)Oc3ccc(NS(=O)(=O)c4ccc(Cl)cc4)cc3C(=O)N([C@@H](C)CO)C[C@@H]2C)cc1` is inactive: 0.993. The value for `COc1cccc(S(=O)(=O)N(C)C[C@H]2Oc3ncc(C#CCC(C)C)cc3C(=O)N([C@H](C)CO)C[C@@H]2C)c1` was inactive: 1.05; that for `C[C@@H]1CN([C@H](C)CO)C(=O)Cc2cc(NS(=O)(=O)c3ccc(Cl)cc3)ccc2O[C@@H]1CN(C)Cc1ccc(Cl)c(Cl)c1` was inactive: 1; that for `Cc1ccc(S(=O)(=O)Nc2cccc3c2O[C@@H](CN(C)C(=O)NC(C)C)[C@@H](C)CN([C@H](C)CO)C3=O)cc1` was inactive: 0.99.

With `Fc1cnc(N2C[C@H]3COC[C@@H]3C2)nc1`, the relative growth was inactive: 0.979. For `COc1ccc(NC(=O)N(C)C[C@H]2OCCCC[C@H](C)Oc3ccc(NC(=O)NC(C)C)cc3C(=O)N([C@@H](C)CO)C[C@H]2C)cc1`, the relative growth is inactive: 1.03. `Cc1noc(C)c1S(=O)(=O)N(C)C[C@@H]1Oc2ccc(NC(=O)C3CC3)cc2CC(=O)N([C@H](C)CO)C[C@@H]1C`: the relative growth was inactive: 1. The value for `Cc1noc(C)c1S(=O)(=O)Nc1ccc2c(c1)C(=O)N([C@@H](C)CO)C[C@H](C)[C@@H](CN(C)C(=O)NC1CCCCC1)O2` was inactive: 0.996. Regarding `C[C@@H]1CN([C@@H](C)CO)S(=O)(=O)c2ccc(C3=CCCCC3)cc2O[C@@H]1CN(C)C(=O)C1CCOCC1`, the relative growth is inactive: 1.02. The figure for `C[C@H](CO)N1C[C@H](C)[C@H](CN(C)CC2CC2)OCCCC[C@H](C)Oc2ccc(NC(=O)Nc3cccc4ccccc34)cc2C1=O` is inactive: 0.972; for `C[C@@H]1CN([C@H](C)CO)C(=O)c2cccc(NC(=O)CCCCCC(=O)Nc3ccccc3N)c2O[C@@H]1CN(C)Cc1ccc(-c2ccccc2)cc1` it is inactive: 0.81; for `C[C@@H]1CN([C@H](C)CO)C(=O)Cc2cc(NS(=O)(=O)c3ccccc3)ccc2O[C@H]1CN(C)S(=O)(=O)c1ccc(F)cc1` it is inactive: 0.971. With `CNC[C@H]1OCCCC[C@@H](C)Oc2ccc(NC(=O)Nc3ccc(C(F)(F)F)cc3)cc2C(=O)N([C@H](C)CO)C[C@@H]1C`, the relative growth was inactive: 0.989. For `C[C@H]1CN([C@@H](C)CO)C(=O)Cc2cc(NS(=O)(=O)c3ccc(F)cc3)ccc2O[C@@H]1CN(C)S(=O)(=O)c1cn(C)cn1`, the relative growth is inactive: 0.975. The figure for `Cc1noc(C)c1NC(=O)Nc1ccc2c(c1)C(=O)N([C@@H](C)CO)C[C@@H](C)[C@@H](CN(C)S(=O)(=O)c1cn(C)cn1)O2` is inactive: 0.992; for `O=C(O)c1ccccc1` it is inactive: 0.946. Take `NC(=O)NCC#Cc1ccc2c(c1)[C@]1(C(=O)N2)[C@H](c2ccccc2OCCO)N2[C@H](c3ccccc3)[C@H](c3ccccc3)OC(=O)[C@H]2[C@@H]1C(=O)N1CCCCCCC1`: the relative growth is inactive: 1.02. The value for `Cc1ccc(S(=O)(=O)Nc2ccc3c(c2)C(=O)N([C@@H](C)CO)C[C@@H](C)[C@@H](CN(C)S(=O)(=O)c2cccs2)O3)cc1` was inactive: 1.05; that for `COc1ccc(NC(=O)N(C)C[C@H]2OCCCC[C@@H](C)Oc3ccc(NC(=O)Nc4cccc5ccccc45)cc3C(=O)N([C@@H](C)CO)C[C@H]2C)cc1` was inactive: 1.04. The figure for `C[C@@H]1CN([C@@H](C)CO)C(=O)CCCn2nncc2CO[C@@H]1CN(C)S(=O)(=O)c1cn(C)cn1` is inactive: 0.974; for `Cc1noc(C)c1S(=O)(=O)Nc1ccc2c(c1)CC(=O)N([C@H](C)CO)C[C@@H](C)[C@H](CN(C)C(=O)NC(C)C)O2` it is inactive: 1.03; for `COc1ccc(S(=O)(=O)N(C)C[C@H]2Oc3ccc(NC(=O)c4ccncc4)cc3C(=O)N([C@@H](C)CO)C[C@@H]2C)cc1` it is inactive: 0.99. Take `COc1ccc2nc3ccc(Cl)cc3c(SCCCN)c2c1`: the relative growth was inactive: 1.02. The figure for `COc1ccc(COC(=O)[C@H]2[C@H]3C(=O)N(Cc4ccc5c(c4)OCO5)C[C@]34C=C[C@]2(Br)O4)cc1` is inactive: 0.884; for `C=CC[C@H](CC(=O)N(CCO)Cc1ccccc1)C(=O)N[C@H](COC(=O)[C@@H](CC=C)Cc1ccc(F)cc1)C(C)(C)C` it is inactive: 1.04; for `CC(C)(C[C@H]1CN(S(=O)(=O)c2cccc(C(F)(F)F)c2)c2cc(-c3cc(F)cc(OC(F)F)c3)ccc2O1)C(=O)O` it is inactive: 1.01.

For `COc1ccc2c3c([nH]c2c1)[C@@H](CO)N(C[C@]13CCN(CC1)C(=O)Nc1ccc(cc1)F)C(=O)c1ccc(cc1)F`, the relative growth is inactive: 0.996. The figure for `Cc1ccc(S(=O)(=O)N(C)C[C@H]2Oc3c(NS(C)(=O)=O)cccc3C(=O)N([C@@H](C)CO)C[C@@H]2C)cc1` is inactive: 1.01; for `CCOC(=O)CCCCCC(=O)Nc1ccc2c(c1)C(=O)N([C@@H](C)CO)C[C@H](C)[C@H](CN(C)C(=O)c1ccccc1)OCCCC[C@H](C)O2` it is inactive: 0.995. The figure for `C[C@H]1CCCCO[C@H](CN(C)S(=O)(=O)c2ccc(Cl)cc2)[C@@H](C)CN([C@@H](C)CO)C(=O)c2cc(NC(=O)NC3CCCCC3)ccc2O1` is inactive: 0.999. In the case of `C[C@H](CO)N1C[C@H](C)[C@H](CN(C)S(C)(=O)=O)Oc2c(NC(=O)Nc3ccccc3)cccc2C1=O`, the relative growth was inactive: 0.973. On to `COc1ccccc1C#Cc1cnc2c(c1)C(=O)N([C@H](C)CO)C[C@@H](C)[C@@H](CN(C)C(=O)c1ccc3c(c1)OCO3)O2`, for which the relative growth was inactive: 1.01.
